Drawing on PubChem BioAssay AID463173 (ICCB-Longwood Screening Facility, Harvard Medical School, 2010), this text covers survival for 92 compounds.

Structures are written as SMILES. Out of some 52,000 compounds screened, about 1,700 (3.3%) were called active. Rule as the data show it: active = survival mostly below about 52% (no sharp cut-off); inactive = mostly above about 56%. The list shows a part of the results.

The test relates to Wild type. The test is described as follows: S. aureus survival, RN4220 and DeltatarO strains – OD600, teichoic acid synthesis inhibitors, primary screen (AID 463173). The settings on record: S. aureus RN4220 wild type/DeltatarO growth, OD600, 18 h, active compounds read low, screened at 18.75 µg/mL (by protocol).
With `CCOC(=O)c1c(NC(=O)COc2cc(C)ccc2C(C)C)sc2c1CCCC2`, the survival was inactive: 65%.
Consider `COc1ccccc1N1CCN(C(CNC(=O)C(=O)NCCN(C)C)c2cccnc2)CC1` (configuration not stated), for which the survival was inactive: 85%.
Turning to `COc1cccc(CN2CCc3nc(Nc4ccc5c(c4)OCCO5)ncc3C2)c1OC`, the survival is inactive: 84%.
As for `CC(=O)Nc1ccc(OCc2cc(=O)n3ccccc3n2)cc1`, the survival was inactive: 67%.
Turning to `CCOc1ccc(NC(=O)c2cc(=O)c3cc(CC)ccc3o2)cc1`, the survival is inactive: 89%.
`Cc1cccc(NC(=O)CSc2nc(=O)n(Cc3ccncc3)c3c2CCC3)c1C`: the survival was inactive: 58%.
For `Cc1ccc(-c2noc(-c3ccccc3NC(=O)C3CC(=O)N(c4cccc(C)c4)C3)n2)cc1` (configuration not stated) the value was inactive: 89%; for `N#CCN(CC#N)C(=O)Cc1cccs1`, inactive: 121%.
Consider `N#CCCn1c(=O)n(CCC#N)c(=O)n(CCC#N)c1=O`, for which the survival is inactive: 111%.
To `CCOc1ccc(NC(=O)CSc2nc(-c3cccs3)cc(C(F)(F)F)c2C#N)cc1` belongs inactive: 66%; to `Oc1ccc(/C=C/c2nc(-c3ccccc3O)n(-c3ccccc3)n2)c(O)c1`, active: -1%; to `O=C(Nc1cccc(F)c1)/C(=C\c1cccs1)NC(=O)c1cccs1`, inactive: 104%.
To `CCc1ccc(C2=C(C)C(N3CCC(C(=O)Nc4cccc(OC)c4)CC3)=NS2(=O)=O)cc1` belongs inactive: 111%; to `CCOc1ccc(Nc2c(S(=O)(=O)c3ccc(C)cc3)cnc3cc(OC)c(OC)cc23)cc1`, inactive: 74%; to `COc1ccccc1NC(=O)CSC1=Nc2ccccc2C2=NC(CC(=O)NCCc3ccccc3)C(=O)N12` (configuration not stated), inactive: 94%.
For `COc1ccc(CCNC(=O)c2ccc3c(c2)sc2nc(-c4ccc(C)cc4)cn23)cc1OC` the value was inactive: 85%.
In the case of `NC(=S)/N=C1/CCN(c2ccccc2)N1`, the survival is inactive: 98%.
For `Cc1ccc(NC(=O)C2CCN(S(=O)(=O)c3ccc4c(c3)CCCC(=O)N4)CC2)c(Cl)c1` the value was inactive: 51%.
With `CCn1c(SCc2cccc(C(=O)O)c2)nnc1-c1ccco1`, the survival is inactive: 97%.
With `CCc1ccccc1NC(=O)Cn1nnc(-c2nc(-c3ccncc3)no2)c1N`, the survival was inactive: 68%.
To `COc1cc(NS(=O)(=O)c2ccc3c(c2)CC(=O)N3)cc(OC)c1OC` belongs inactive: 76%; to `COc1ccc(-c2noc(=O)n2CCCC#N)cc1OC`, inactive: 99%; to `O=C(NCc1ccccc1Cl)c1ccc2c(c1)nnn2C1CCCC1`, inactive: 90%.
For the compound `COc1cccc2c1Oc1ncccc1N(c1ccc(C(=O)NCc3ccccc3C)s1)C2`, the survival is inactive: 71%.
Regarding `CCCCC(=O)Nc1ccc2nc(SCC(=O)N3CCOCC3)sc2c1`, the survival is inactive: 94%.
To `CCOc1ccc(NC(=O)CN2CCN(CC(=O)Nc3ccc(N(CC)CC)cc3)CC2)cc1` belongs inactive: 80%.
For the compound `COc1cc(NS(=O)(=O)c2ccc3[nH]c(=O)[nH]c3c2)cc(OC)c1`, the survival was inactive: 80%.
For `O=C(CCCc1ccccc1)NC1CC(=O)N(c2ccc(Cl)cc2)C1` (configuration not stated) the value was inactive: 83%; for `CC1=C(c2ccc(C(C)C)cc2)S(=O)(=O)N=C1N1CCN(c2ccc(F)cc2)CC1`, inactive: 82%; for `Cc1cccc(-c2nc3c4ccccc4nc(N4CCN(c5ccc(F)cc5)CC4)n3n2)c1`, inactive: 74%.
To `Cc1ccc(OCC(=O)Nc2nnc(SCc3cc(=O)c4ccccc4[nH]3)s2)cc1C` belongs inactive: 69%.
With `COc1ccccc1C(=O)n1nc(-c2cccnc2)nc1NCc1ccccc1`, the survival is inactive: 87%.
To `O=C(O)c1cccc(NC2SC(=O)N(c3ccccc3)C2=O)c1` (configuration not stated) belongs inactive: 114%.
In the case of `Cc1ccc(Cl)cc1NC(=O)c1ccc(NC(=O)N2CCSc3ncccc32)cc1`, the survival was inactive: 71%.
To `OCCNCC(O)Cn1ccc2ccccc21` (configuration not stated) belongs inactive: 113%.
To `COc1ccc(NC(=O)c2coc(=O)c3ccccc23)cc1OC` belongs inactive: 144%; to `CC1=Nc2cc(C(=O)NC3CCCCC3)ccc2Sc2ccc(Cl)cc21`, inactive: 94%; to `CC(C)Sc1ncnc2c1cnn2-c1ccccc1`, inactive: 96%.
Turning to `Cc1ccc2c(CNC3CCCC3)c(C(=O)O)n(Cc3ccc(F)cc3)c2c1`, the survival was inactive: 111%.
`CN(C(=O)CSc1nc2ccccc2n1CC(=O)N(C)C1CCCCC1)c1ccccc1`: the survival is inactive: 87%.
To `COc1ccc(NC(=O)C2CCN(S(=O)(=O)c3cc(-c4noc(C)n4)ccc3C)CC2)cc1` belongs inactive: 120%; to `Cc1cccc(NC(=O)CN2C(=O)CCn3nc(-c4cccn4C)cc32)c1C`, inactive: 56%; to `Cc1ccc(C)c(NC(=O)c2cc(S(=O)(=O)NCCc3ccccc3)ccc2F)c1`, inactive: 81%.
Consider `Cc1ccc(-c2csc3nnc(SCC(N)=O)n23)cc1`, for which the survival is inactive: 118%.
For `O=S(=O)(NCc1ccncc1)c1ccc(C2CCCCC2)cc1` the value was inactive: 114%.
To `CCOC(=O)C1CCCN(C(=O)c2ccc3c(c2)N(Cc2ccc(Cl)cc2)C(=O)c2ccccc2S3=O)C1` (configuration not stated) belongs inactive: 82%; to `Cc1noc(/C=C/c2ccccc2F)c1S(=O)(=O)N1CCC(C(=O)Nc2ccc(C#N)cc2)CC1`, inactive: 66%; to `CCCCNC(=O)CCn1c(=O)c2ccccc2n(Cc2cccc(Cl)c2)c1=O`, inactive: 94%.
For `O=C(C1CCN(S(=O)(=O)Cc2ccccc2)CC1)N1CCCc2ccccc21` the value was inactive: 106%.
Regarding `O=C(CSc1nc2ccsc2c(=O)n1-c1ccc(Br)cc1)NCc1ccccc1`, the survival is inactive: 80%.
To `CCCCN(CC)C(=O)C1CCCN(c2ncnc3c2nc2n3CCCCC2)C1` (configuration not stated) belongs inactive: 73%; to `CCOc1ccc(CNC(=O)CCn2c(=O)c3cccn3c3ccc(F)cc32)cc1`, inactive: 72%; to `CCOC(=O)c1ccc(NC(=O)c2ccc(CN3C(=O)CCn4nc(C)cc43)cc2)cc1`, inactive: 132%.
For `O=C(CSc1nnc2scc(-c3ccccc3)n12)Nc1ccc(Cl)cc1` the value was inactive: 53%.
To `Cc1ccccc1C(=O)N1CCC(N2CCN(Cc3ccc(F)cc3)C(=O)C2=O)CC1` belongs inactive: 121%.
In the case of `O=C(Nc1cccc(C(F)(F)F)c1)Nc1cccs1`, the survival is active: 4%.
To `CC1CCN(c2ccc(-c3nc(-c4ccccc4)no3)cc2[N+](=O)[O-])CC1` belongs inactive: 112%; to `CCc1cccc(C)c1NC(=O)CCCN1C(=O)C(c2ccccc2)Oc2cccnc21` (configuration not stated), inactive: 94%.
To `CCOC(=O)c1c(C)[nH]c(C)c1S(=O)(=O)N(C)CC(=O)NCc1cccc(Br)c1` belongs inactive: 85%.
To `COc1ccc(NC(=O)NCCn2nnc3cc(S(=O)(=O)N(C)C)ccc32)cc1` belongs inactive: 59%; to `COCCOC(=O)C1=C(C)OC(N)=C(C#N)C1c1cc2cc3c(cc2nc1Cl)OCO3` (configuration not stated), inactive: 110%; to `O=C(NCc1nc2ccccc2[nH]1)c1cccc(Cl)c1`, inactive: 89%.
As to `NC(=O)c1ccccc1NS(=O)(=O)c1ccccc1`, the survival is inactive: 111%.
For `O=C(Cn1c(=O)c2ccccc2n2nncc12)Nc1cccc(F)c1` the value was inactive: 89%.
For `CCc1cccc(C)c1NC(=O)CCCn1nc(C)c2sc3ccccc3c2c1=O` the value was inactive: 90%.
On to `O=C1OCC2=C1C(c1ccc3c(c1)OCO3)Sc1ccccc1N2` (configuration not stated), for which the survival was inactive: 125%.
On to `Cc1cc(N2CCCCC2)nc2ccc(NC(=O)/C=C/c3ccc(OCCC(C)C)cc3)cc12`, for which the survival was inactive: 71%.
On to `Cc1ccccc1Cn1cnc2nc3c(cc2c1=O)CC(C)CC3` (configuration not stated), for which the survival was active: 0%.
In the case of `Cc1ccc(Cl)cc1NC(=O)CCn1c(=O)c2cccn2c2cccnc21`, the survival is inactive: 90%.
For `CCN1CC=C2C(C1)C(c1ccc(Cl)s1)C(C#N)=C(N)C2(C#N)C#N` (configuration not stated) the value was inactive: 91%.
For `CCOc1ccc2nc(N3CCC(C(=O)Nc4cc(C)ccc4C)CC3)sc2c1` the value was inactive: 86%.
Turning to `COCCCNC(=O)c1ccc2c(c1)nc1n2CCCCC1`, the survival is inactive: 80%.
For `S=C(Nc1ccccc1)Nn1cnnc1` the value was inactive: 112%; for `Cc1ccc(NC(=O)Cn2cc3c(n2)CCCC3)c(C)c1`, inactive: 86%; for `O=C(NC1CCCCC1)c1ccc(CSc2nc3ccncc3n2Cc2ccccc2F)cc1`, inactive: 94%.
For `COc1ccc(NC(=O)CSc2nc(-c3cccs3)cc(C(F)(F)F)n2)c(OC)c1` the value was inactive: 71%.
To `Oc1c(C(c2ccccc2Cl)N2CCN(Cc3ccccc3)CC2)sc2nc(-c3ccco3)nn12` (configuration not stated) belongs inactive: 73%.
As for `CCc1ccc(NC(=O)CSc2ccc(-c3cccs3)nn2)cc1`, the survival was inactive: 87%.
To `O=C(CSCc1cnn(-c2ccccc2)c1-n1cccc1)NCc1ccc(F)cc1` belongs inactive: 88%; to `Cc1noc(Cn2c(=O)c3cc4c(cc3n(CC(=O)Nc3ccccc3F)c2=O)OCO4)n1`, inactive: 73%.
To `CCOC(=O)c1cnc2ccc(OCC)cc2c1N1CCN(c2ccccc2F)CC1` belongs active: -12%.
Turning to `CCOC(=O)C1CCC(CN(Cc2ccc(OC)cc2)S(=O)(=O)c2ccc(F)c(C(=O)Nc3cc(C)ccc3C)c2)CC1` (configuration not stated), the survival is inactive: 70%.
For `Cc1nc(N2CCCC2)c2c(C(=O)Nc3ccc(Br)cc3F)c(C)oc2n1` the value was inactive: 19%; for `CCOc1ccc(NC(=O)c2ccc3snnc3c2)cc1`, inactive: 109%; for `Cc1ccc(NC(=O)CNCc2ccco2)cc1Cl`, inactive: 101%.
To `CC(C)NC(=O)C1CCC(Cn2c(=O)c3sccc3n(CC(=O)Nc3ccccc3)c2=O)CC1` (configuration not stated) belongs inactive: 81%; to `Cc1ccccc1C(=O)Nc1nc(-c2ccc(Br)cc2)ns1`, inactive: 70%.
To `COc1ccc(-c2csc3nc(-c4ccccc4)oc(=O)c23)cc1OC` belongs inactive: 126%; to `CCOC(=O)c1c(C)n(-c2ccccc2)c2ccc(OC(=O)c3cccc(Cl)c3)cc12`, inactive: 78%; to `FC(F)(F)c1cc(-c2cccc(Br)c2)nc2ncnn12`, inactive: 124%.
As to `Cc1cccc(-c2nc(CSc3nncn4c3cc3sccc34)c(C)o2)c1`, the survival was inactive: 84%.
For `CCOC(=O)c1ccc(CN(Cc2ccccc2)S(=O)(=O)c2ccc(Cl)cc2)cc1` the value was active: 0%.
